# Test results reported in PubChem BioAssay AID504333 (National Center for Advancing Translational Sciences (NCATS), 2011).
# The campaign covered roughly 360,000 compounds. About 16,000 (4.4%) were called active. The shares of active, inactive and inconclusive entries below differ from those in the screen. The call rests on the fitted dose curve; in most records, active means well fitted inhibition curve with a large enough effect; inconclusive means small, poorly fitted or top-dose-only effect; inactive means no such curve, though single readings can be large or run the other way. Potencies beside an inconclusive call are fits to weak or partial responses and may not hold up.
# Target: Bromodomain adjacent to zinc finger domain protein 2B (Homo sapiens) (UniProt Q9UIF8)
# Sequence of UniProt Q9UIF8 (Q9UIF8 whole entry, looked up, the tested form may be a part): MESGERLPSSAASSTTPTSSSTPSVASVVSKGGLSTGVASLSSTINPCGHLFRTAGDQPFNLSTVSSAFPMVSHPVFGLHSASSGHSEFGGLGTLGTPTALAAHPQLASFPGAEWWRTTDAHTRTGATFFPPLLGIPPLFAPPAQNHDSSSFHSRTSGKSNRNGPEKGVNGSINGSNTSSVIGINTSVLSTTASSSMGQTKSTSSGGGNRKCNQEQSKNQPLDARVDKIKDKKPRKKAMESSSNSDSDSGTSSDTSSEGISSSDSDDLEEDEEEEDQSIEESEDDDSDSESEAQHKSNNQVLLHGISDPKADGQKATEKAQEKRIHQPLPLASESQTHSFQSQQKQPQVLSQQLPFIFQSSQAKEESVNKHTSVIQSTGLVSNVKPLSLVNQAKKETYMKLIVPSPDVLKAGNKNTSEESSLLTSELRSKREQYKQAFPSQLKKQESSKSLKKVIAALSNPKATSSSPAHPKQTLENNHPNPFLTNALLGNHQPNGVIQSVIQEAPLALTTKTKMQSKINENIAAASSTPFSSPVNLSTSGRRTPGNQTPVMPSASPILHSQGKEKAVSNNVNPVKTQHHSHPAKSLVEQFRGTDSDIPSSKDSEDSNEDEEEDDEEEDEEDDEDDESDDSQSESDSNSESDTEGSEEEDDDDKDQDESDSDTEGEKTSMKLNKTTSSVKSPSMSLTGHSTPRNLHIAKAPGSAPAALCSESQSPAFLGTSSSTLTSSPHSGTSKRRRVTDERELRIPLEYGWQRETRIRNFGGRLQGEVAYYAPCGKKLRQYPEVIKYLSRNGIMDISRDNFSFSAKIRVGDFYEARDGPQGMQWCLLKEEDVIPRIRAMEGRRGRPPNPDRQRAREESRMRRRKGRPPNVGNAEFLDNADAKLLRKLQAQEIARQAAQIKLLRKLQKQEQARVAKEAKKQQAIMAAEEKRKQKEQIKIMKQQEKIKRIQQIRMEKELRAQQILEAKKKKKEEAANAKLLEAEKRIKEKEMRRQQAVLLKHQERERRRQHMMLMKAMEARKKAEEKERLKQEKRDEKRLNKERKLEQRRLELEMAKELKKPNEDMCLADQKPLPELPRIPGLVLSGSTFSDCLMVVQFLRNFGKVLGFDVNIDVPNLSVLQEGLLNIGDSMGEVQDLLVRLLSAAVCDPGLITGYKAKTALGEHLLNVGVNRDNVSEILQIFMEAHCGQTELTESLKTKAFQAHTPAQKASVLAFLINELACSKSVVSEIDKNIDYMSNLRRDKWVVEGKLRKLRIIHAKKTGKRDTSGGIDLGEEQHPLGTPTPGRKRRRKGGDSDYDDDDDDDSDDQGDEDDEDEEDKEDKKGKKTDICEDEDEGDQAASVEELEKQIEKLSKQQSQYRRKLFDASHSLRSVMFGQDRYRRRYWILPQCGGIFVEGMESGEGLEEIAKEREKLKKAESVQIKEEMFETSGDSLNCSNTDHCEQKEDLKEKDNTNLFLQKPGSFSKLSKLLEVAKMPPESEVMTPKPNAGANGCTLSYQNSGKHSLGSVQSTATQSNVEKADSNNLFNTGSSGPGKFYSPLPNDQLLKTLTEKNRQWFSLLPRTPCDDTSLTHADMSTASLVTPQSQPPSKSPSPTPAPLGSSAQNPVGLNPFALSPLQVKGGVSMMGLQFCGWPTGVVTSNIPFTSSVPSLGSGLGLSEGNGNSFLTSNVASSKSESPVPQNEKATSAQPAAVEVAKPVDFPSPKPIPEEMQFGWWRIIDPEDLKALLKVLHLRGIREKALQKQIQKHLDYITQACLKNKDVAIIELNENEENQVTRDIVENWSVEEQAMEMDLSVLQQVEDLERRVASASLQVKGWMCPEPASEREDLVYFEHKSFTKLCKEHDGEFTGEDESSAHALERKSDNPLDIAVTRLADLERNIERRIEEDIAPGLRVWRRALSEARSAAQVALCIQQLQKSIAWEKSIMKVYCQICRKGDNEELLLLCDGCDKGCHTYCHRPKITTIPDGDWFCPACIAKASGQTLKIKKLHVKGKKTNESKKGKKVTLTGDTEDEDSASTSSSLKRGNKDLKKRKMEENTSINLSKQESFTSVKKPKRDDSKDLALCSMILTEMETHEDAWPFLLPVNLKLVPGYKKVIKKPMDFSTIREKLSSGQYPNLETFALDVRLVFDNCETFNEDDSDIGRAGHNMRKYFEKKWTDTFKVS
# Test: qHTS Assay for Inhibitors of BAZ2B; further: nearly all actives have a fitted effect of over 60% in size
# Details: AlphaScreen BAZ2B-H3K14Ac peptide displacement; activity change, negative = inhibition: at 114 µM (top of the series)
# Procedure, shortened: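 Complex of BAZ2B and biotin-H3K14Ac (50 nM apiece) forms over 30 min at RT, then faces library compounds up to 110 uM for another 30 min; AlphaScreen beads added, 20 min dark incubation, luminescence read.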
# On the % scale 0 is the no-effect control and ±100 the full control effect; potency means the concentration at half of the fitted maximal effect; tags describe the fitted curve by direction and shape.
Structure (SMILES),Potency,"activity change, negative = inhibition"
CC(=O)NC(CC(=O)OCC(=O)c1ccc(NC(=O)CC(C)C)cc1)c1ccccc1 (configuration not stated),"inconclusive: 89.1 µM [inhibitor, single point]",–
Cc1ccc2nc(SCC(=O)Nc3cc([N+](=O)[O-])ccc3F)[nH]c2c1,"inconclusive: 70.8 µM [inhibitor, single point]",–
Cc1cc(/N=C/C=C2\N(C)c3ccccc3C2(C)C)n(CCC#N)n1,"inconclusive: 39.8 µM [inhibitor, partial curve]",–
CCN(CC)C(=O)CSc1nnc(-c2ccccn2)n1-c1ccccc1OC,active: 89.1 µM,–
O=C(O)c1cc([N+](=O)[O-])ccc1NCc1ccccc1,"inconclusive: 70.8 µM [inhibitor, single point]",–
Cc1cc(C=O)c(C)n1-c1cccc(C(=O)O)c1,active: 79.4 µM,–
Cc1ccc(Cn2c(C)c(CNCCCc3ccccc3)c(C(=O)O)c2C)cc1,"inconclusive: 50.1 µM [inhibitor, partial curve]",–
O=C(NNc1nc2c(F)cc(F)cc2s1)C1COc2ccccc2O1 (configuration not stated),–,inactive: -0.262%
COc1ccc(S(=O)(=O)Cc2ccc(C(=O)N3CCc4ccccc4C3)o2)cc1,–,inactive: -2.67%
Cc1ccc(OCC(=O)NCc2cccs2)cc1,–,inactive: 5.94%
CC[n+]1c(-c2ccc(C)cc2)csc1Nc1c(C)n(C)n(-c2ccccc2)c1=O,"inconclusive: 44.7 µM [inhibitor, partial curve]",–
Fc1ccc2ncc3c(-c4ccccc4)n[nH]c3c2c1,"inconclusive: 70.8 µM [inhibitor, single point]",–
O=C(Nc1c(C(=O)Nc2ccccc2F)oc2ccccc12)c1cc2ccccc2o1,–,inactive: 2.38%
COc1ccc(NC(=S)N(CCCN2CCOCC2)Cc2cn(C)c3ccccc23)cc1,"inconclusive: 50.1 µM [inhibitor, partial curve]",–
C=CCn1c(-c2ccccc2[N+](=O)[O-])n[nH]c1=S,"inconclusive: 79.4 µM [inhibitor, partial curve]",–
O=C1/C(=C/c2ccccn2)SC(=S)N1N1CCOCC1,"inconclusive: 89.1 µM [inhibitor, single point]",–
O=c1c(O)c(-c2ccc(O)cc2O)oc2cc(O)cc(O)c12,active: 50.1 µM,–
COc1ccc2[nH]c(C)c(CCN(Cc3cccs3)C(=S)Nc3ccccc3OC)c2c1,"inconclusive: 44.7 µM [inhibitor, partial curve]",–
CCn1c(SCC(=O)Nc2ccc(-c3nc4ccc(C)cc4s3)cc2)nnc1-c1ccccc1,"inconclusive: 89.1 µM [inhibitor, single point]",–
CC(=O)N(c1ccccc1)c1ccc([N+](=O)[O-])cc1[N+](=O)[O-],"inconclusive: 89.1 µM [inhibitor, single point]",–
CCCOP(=O)(c1ccc(N(C)C)cc1)C(Nc1ccccc1)c1ccc(N(C)C)cc1 (configuration not stated),"inconclusive: 63.1 µM [inhibitor, single point]",–
CCN1C(=O)/C(=C/C=C2\N(CC)c3cc(S(=O)(=O)N(C)C)ccc3N2c2ccccc2)SC1=S,active: 8.91 µM,–
C=CCn1c(SCc2nc3sc(C(=O)O)c(C)c3c(=O)[nH]2)nnc1-c1ccccc1,"inconclusive: 79.4 µM [inhibitor, single point]",–
C[C@H](N)c1nnc(SCC(=O)c2ccc(Cl)cc2)o1,"inconclusive: 3.16 µM [inhibitor, single point]",–

Structure (SMILES),Potency,"activity change, negative = inhibition"
CCc1ccc(CN2CCN(c3ncccn3)CC2)cc1,active: 50.1 µM,–
CN1/C(=C/C(=O)c2nc(S(C)(=O)=O)ncc2Cl)C(C)(C)c2ccccc21,"inconclusive: 50.1 µM [inhibitor, partial curve]",–
CCc1ccc(C(=O)c2cn(CC(=O)Nc3ccc(C)c(C)c3)c3ccccc3c2=O)cc1,"inconclusive: 79.4 µM [inhibitor, partial curve]",–
COc1cc(C(=O)OCCNC(=O)c2ccncc2)cc(OC)c1OC,"inconclusive: 89.1 µM [inhibitor, single point]",–
O=C(c1ccc2c(c1)N(Cc1ccccc1F)C(=O)c1ccccc1S2=O)N1CCOCC1 (configuration not stated),–,inactive: -6.51%
Cc1ccc(CN2CCc3nc(N4CCN(C)CC4)ncc3C2)s1,"inconclusive: 56.2 µM [inhibitor, partial curve]",–
CCOc1ccccc1N1CCN(C(=S)NCc2ccco2)CC1,–,inactive: -33.8%
COc1ccccc1OC(C)C(=O)N1CCN(Cc2ccc3c(c2)OCO3)CC1 (configuration not stated),"inconclusive: 79.4 µM [inhibitor, single point]",–
Cc1cc(NC(=O)CCC(=O)N(CC(C)C)C(C(=O)NC(C)(C)C)c2ccccc2Cl)no1 (configuration not stated),–,inactive: -3.71%
CCOC(=O)C(=N/O)/C(C)=N/NC(=O)C(=O)Nc1cc(Cl)ccc1Cl,active: 17.8 µM,–
Cc1ccc(S(=O)(=O)Nc2ccc(S(=O)(=O)NC(C)(C)C)cc2)cc1,"inconclusive: 8.91 µM [inhibitor, single point]",–
CCCC(CCC)C(=O)Nc1cccc(-c2cn3cccnc3n2)c1,–,inactive: -11.9%
Nc1csnc1C(=O)O,–,inconclusive: -97.8% [inhibitor]
O=S1(=O)CCOC[C@H](CC2CCCCC2)N1Cc1ccccc1,–,inactive: -0.669%
CCOC(=O)c1cnc2c(OC)cccc2c1Nc1ccc2c(c1)OCCO2,"inconclusive: 89.1 µM [inhibitor, single point]",–
COCc1nnc(NC(=O)c2ccc(S(=O)(=O)N(C)Cc3ccccc3)cc2)o1,"inconclusive: 79.4 µM [inhibitor, single point]",–
Cc1cccc(C)c1OCC(=O)NCc1nnc(SCC(=O)NC2CCCCC2C)n1C (configuration not stated),–,inactive: -37.6%
Oc1cccc(C(Nc2nccs2)c2ccc3cccnc3c2O)c1 (configuration not stated),active: 28.2 µM,–
N#C/C(=C(/O)COc1ccccc1)c1nnc2n1CCCCC2,"inconclusive: 89.1 µM [inhibitor, single point]",–
CCOC(=O)C1CCCN(C(=O)Cn2ncc3c([nH]c4ccc(C)cc43)c2=O)C1 (configuration not stated),inactive,–
Cc1[nH]c2ccc(C(=O)OC(C)C(=O)N(C)C3CCCCC3)cc2c1C (configuration not stated),active: 56.2 µM,–
Cc1cccc(N2CC(C(=O)NCC3COc4ccccc4O3)CC2=O)c1C (configuration not stated),–,inactive: -4.7%
Cc1cccc(N2CCN(C(=O)c3ccc(NC(=O)c4nsc5ccccc45)cc3)CC2C)c1 (configuration not stated),"inconclusive: 22.4 µM [inhibitor, full curve]",–
COc1ccc(Cc2nnc(N/N=C/c3ccccc3O)[nH]c2=O)cc1OC,active: 6.31 µM,–

Structure (SMILES),Potency,"activity change, negative = inhibition"
Cc1ccc(S(=O)(=O)c2nc(Nc3ccccc3C#N)sc2Cl)cc1,–,inactive: -4.98%
C#CCOCCOCCOCCNc1nc(N2CCN(C(=O)CCCCCCCCCCNC(=O)[C@H](CCCCN)n3cc(CCCC(=O)O)nn3)CC2)nc(N2CCN(C(=O)CCCCCCCCCCNC(=O)[C@H](CCCN=C(N)N)n3cc(C[C@@H](C)CC)nn3)CC2)n1,active: 50.1 µM,–
COc1ccc(C(=O)Nc2nc3ccccc3[nH]2)cc1S(=O)(=O)N1CCOCC1,"inconclusive: 89.1 µM [inhibitor, single point]",–
Cc1ccccc1NC(=O)C1Cc2ccccc2CN1C(=O)OCc1ccccc1 (configuration not stated),–,inactive: -1.5%
O=C(c1c(Cl)nc2sccn12)N(C(=O)c1c(Cl)nc2sccn12)c1ccc(Cl)cn1,"inconclusive: 79.4 µM [inhibitor, single point]",–
COc1cc2ccnc(Cc3cccc(OC)c3OC)c2cc1OC,–,inactive: -13.2%
Cc1cc(C)c(C)c(OCCNCc2ccccc2)c1,active: 20 µM,–
COc1ccccc1CNC(=O)CS(=O)Cc1nc(-c2ccc(OC)c(OC)c2)oc1C (configuration not stated),"inconclusive: 20 µM [inhibitor, full curve]",–
COc1ccccc1Nc1c2c(nc3ccc(NC(=O)c4cccc(F)c4)cc13)CCCC2,"inconclusive: 14.1 µM [inhibitor, full curve]",–
Cc1cccc(NC(=S)N2CCC(c3nc4ccccc4s3)CC2)c1,"inconclusive: 44.7 µM [inhibitor, partial curve]",–
C/C(N)=C(/C#N)C(=O)CSc1nnc(COc2ccccc2Cl)o1,"inconclusive: 56.2 µM [inhibitor, partial curve]",–
CC(=Nc1ccccc1O)c1sc2ccccc2c1O,"inconclusive: 35.5 µM [inhibitor, partial curve]",–
Cc1nn(C)c(C)c1NC(=O)CSc1nc(C2CC2)nc2c1cnn2-c1ccccc1,–,inactive: 8.16%
Cc1ccc(S(=O)(=O)c2cc3c(=O)n4ccccc4nc3n(CCCN3CCOCC3)c2=N)cc1C,–,inactive: -15.9% [at 57.1 µM]
CC(C)(C)c1ccc(C(=O)NNc2cc(Cl)cc(Cl)c2)cc1,–,inactive: -9.72%
CC12CCC(C(=O)NCc3ccccn3)(OC1=O)C2(C)C (configuration not stated),active: 79.4 µM,–
O=C(CN1CCN(C(=O)N2CCOCC2)CC1)Nc1cc(Cl)ccc1Cl,–,inactive: 11.2%
O=C(NC1CCCCC1)C(c1ccccc1)N(Cc1ccco1)C(=O)c1csnn1 (configuration not stated),–,inactive: -5.72%
CC(=O)Nc1ccc(S(=O)(=O)NC2=C(N3CCN(C)CC3)C(=O)c3ccccc3C2=O)cc1,active: 31.6 µM,–
O=c1c2ccccc2oc2cc(NCCCn3ccnc3)ccc12,"inconclusive: 50.1 µM [inhibitor, partial curve]",–
COc1ccc(C2=NN(c3ccccc3)C(c3cn(CCC(=O)O)nc3-c3ccccc3)C2)cc1 (configuration not stated),"inconclusive: 89.1 µM [inhibitor, single point]",–
COc1ccc(C(C(=O)Nc2ccc(C(C)C)cc2)N(Cc2ccco2)C(=O)CC2NC(=O)NC2=O)cc1 (configuration not stated),active: 39.8 µM,–
CCOc1ccc(NC(=O)CNS(=O)(=O)c2ccc(Br)s2)cc1,–,inactive: 4.07%
Cc1ccc2oc(Nc3nc(-c4ccccc4)cc(=O)[nH]3)nc2c1,"inconclusive: 50.1 µM [inhibitor, partial curve]",–
